Reference: PubChem BioAssay AID1645882 (National Center for Advancing Translational Sciences (NCATS), 2021)
Hit rate of the full screen: of about 16,000 compounds, about 120 (0.75%) were called active. About 4% were inconclusive and are not listed. The call rests on the fitted dose curve; in most records, active means well fitted inhibition curve with a large enough effect; inconclusive means small, poorly fitted or top-dose-only effect; inactive means no such curve, though single readings can be large or run the other way. This is one part of the list. Where a SMILES comes first, the peptide text is derived from it. [ ]: non-standard residue; d: D form. pGlu = O=C1CC[C@@H](C(=O)O)N1; Thz = O=C(O)[C@@H]1CSCN1

Biological target: Rap guanine nucleotide exchange factor 3 (Homo sapiens) (UniProt O95398)
Experiment: Validation qHTS for antagonist of cAMP-regulated guanine nucleotide exchange factor 3 (EPAC1);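 further: plate controls were DMSO for no effect and ATA control for full effect; nearly all actives have a fitted effect of over 75% in size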
Conditions: EPAC1 Rap1B-BODIPY-GDP exchange, fluorescence; series mostly up to 150 µM; activity change, negative = inhibition: at the top concentration
Outline: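 Nucleotide exchange followed as fluorescence loss when BODIPY-GDP leaves Rap1B (480 nm excitation, 540 nm emission), read at 5 min intervals over 30 min. Reaction: 100 nM EPAC1, 250 nM RAP1B-BODIPY-GDP, 50 uM GDP; ATA and DMSO define normalization.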

Chain of UniProt O95398 (O95398 whole entry, looked up): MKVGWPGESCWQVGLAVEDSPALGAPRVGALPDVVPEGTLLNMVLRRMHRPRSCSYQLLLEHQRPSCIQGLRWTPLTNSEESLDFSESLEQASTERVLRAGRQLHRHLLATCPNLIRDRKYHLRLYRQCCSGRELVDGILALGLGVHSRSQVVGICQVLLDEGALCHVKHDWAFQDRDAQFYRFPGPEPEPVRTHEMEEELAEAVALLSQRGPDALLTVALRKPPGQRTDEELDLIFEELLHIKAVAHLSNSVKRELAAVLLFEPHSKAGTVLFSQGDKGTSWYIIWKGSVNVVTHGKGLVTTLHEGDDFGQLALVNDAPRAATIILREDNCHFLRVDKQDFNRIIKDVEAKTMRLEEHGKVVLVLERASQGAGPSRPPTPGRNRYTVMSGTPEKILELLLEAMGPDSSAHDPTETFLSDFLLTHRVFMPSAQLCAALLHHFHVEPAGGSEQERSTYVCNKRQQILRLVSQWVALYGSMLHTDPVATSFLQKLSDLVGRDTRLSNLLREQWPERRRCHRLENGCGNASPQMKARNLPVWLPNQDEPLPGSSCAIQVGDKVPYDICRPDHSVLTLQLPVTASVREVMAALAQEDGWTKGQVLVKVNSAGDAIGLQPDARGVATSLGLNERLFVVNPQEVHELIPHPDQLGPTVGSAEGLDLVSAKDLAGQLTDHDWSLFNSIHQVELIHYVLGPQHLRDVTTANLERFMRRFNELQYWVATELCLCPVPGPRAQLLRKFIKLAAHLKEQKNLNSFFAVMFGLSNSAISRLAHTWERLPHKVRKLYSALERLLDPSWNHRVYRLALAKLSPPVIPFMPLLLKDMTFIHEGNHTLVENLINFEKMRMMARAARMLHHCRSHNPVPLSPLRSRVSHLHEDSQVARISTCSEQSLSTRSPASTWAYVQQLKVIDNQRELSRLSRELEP

SMILES | activity change, negative = inhibition
Cc1noc(C)c1-c1cc(NC2CCNCC2)ncn1 | inactive: 11.8%
NC(C(=O)O)C(CC(=O)O)c1ccc(Cl)cc1 (stereo not given) | inactive: 8.7%
COc1ccccc1-c1cncnc1-n1ccnc1 | inactive: 15.2%
C[C@@]1(C2CCCC2)Cc2cc(OCC(=O)O)c(Cl)c(Cl)c2C1=O | inactive
CCNc1ncc2nc(-c3cn(C)c4ccccc34)c(=O)n(CCC#N)c2n1 | inactive: 1.88%
O=C(Nc1ccc(Cl)c(C(F)(F)F)c1)[C@@H]1CC=C[C@@H]2CCN(Cc3ccccc3)C(=O)[C@@H]21 | inactive: -6.44%
CCC12C(=Nc3c(Cl)cccc31)C[C@@H]1CCN3C(=O)CCC[C@H]2[C@H]13 (stereo not given in full) | inactive: 4.64%
O=C(CNC(=O)c1cccnc1)c1ccc(F)cc1 | inactive: 19.5%
COc1cc(O)cc(O)c1 | inactive: 15.8%
N[C@H](C(=O)O)C(O)C(O)C(O)CO (stereo not given in full) | inactive: -8.35%
FC(F)(F)c1ccccc1-c1nc(NCCN2CCOCC2)c2ccccc2n1 | inactive: -0.453%
COCC(=O)N1CCC2(CCCN(C(=O)Nc3ccc(OC)cc3)C2)CC1 | inactive: 20.1%
CC(=O)N(CC(O)CO)c1c(I)c(C(=O)NCC(O)CO)c(I)c(C(=O)NCC(O)CO)c1I (stereo not given) | inactive: 23.3%
COc1cc(=O)n2c(c1C(=O)N(C)Cc1ccsc1)CCN(Cc1c(C)nn(C)c1Cl)CC2 | inactive: 9.4%
COc1ccccc1CN1CCC2(CC1)CCN(C(=O)c1c(C)noc1C)CC2 | inactive: 16.6%
O=P(O)(O)OC[C@H]1O[C@](O)(COP(=O)(O)O)[C@@H](O)[C@@H]1O | inactive: 5.96%
O=C(NCCCN1CCOCC1)c1cnn(-c2ncc3c(n2)-c2ccccc2CC3)c1C1CC1 | inactive: 21.3%
CC(C)(C)[C@H]1CCC(=O)N([C@H](CC#N)Cc2ccccc2)CC1 | inactive: -2.77%
COc1ccccc1CN1CCC2(CCC(CNC(=O)c3ccccc3N(C)C)O2)CC1 (stereo not given) | inactive: 17.5%
O=C1CCN(Cc2ccccc2)CCN1[C@H](COc1ccccc1)c1ccccc1 | inactive: -2.52%
COc1cccc(Cn2c(=O)c(-c3cccs3)nc3cnc(N(C)C)nc32)c1 | inactive: 21%
Cc1ccc(C(=O)N(Cc2cc3ccc(F)cc3nc2N2CCC(O)CC2)CC2CCCO2)cc1 (stereo not given) | inactive: 17.9%
COc1ncc2nc(CCc3ccccc3)c(=O)n(Cc3ccc(F)cc3)c2n1 | inactive: -6.33%
COc1ccc(NC(=O)N2CC3(CCN(C(=O)c4cccc(F)c4)CC3)C2)cc1 | inactive: 12.9%

SMILES | activity change, negative = inhibition
CN1CCN(c2ncncc2-c2cccnc2)CC1 | inactive: -7.01%
COc1ccc(CNc2ncncc2-c2cccc(C#N)c2)c(OC)c1 | inactive: -14.2%
COc1cc(-c2cnc3ccccc3c2)cc2c1OCCN(C(=O)Cn1nccc1C)C2 | inactive: 22.3%
COc1cc([C@@H]2c3cc4c(cc3C(O[C@@H]3O[C@@H]5CO[C@@H](C)O[C@H]5[C@H](O)[C@H]3O)C3COC(=O)[C@@H]32)OCO4)cc(OC)c1OP(=O)(O)O (stereo not given in full) | inactive
CN1CCN(c2ncc3nc(-c4cn(C)c5ccccc45)c(=O)n(CCC#N)c3n2)CC1 | inactive: 50%
CN(C)CCOc1ccccc1Cc1ccccc1 (tested in a mixture with another compound) | inactive: 16.1%
O=C(C[n+]1ccncc1)c1cccc([N+](=O)[O-])c1 | inactive: 27.9%
CN1CCC2(CC1)CCN(S(=O)(=O)c1ccccc1)CC2 | inactive: 16.4%
CCCC[C@H]1COCCS(=O)(=O)N1Cc1cccc(F)c1 | inactive: -7.02%
CC(=O)N(CC(O)CO)c1c(I)c(C(=O)NCCO)c(I)c(C(=O)NCC(O)CO)c1I (stereo not given) | inactive: 25.5%
COc1ccc(-n2c(=O)c(-c3ccc(F)cc3)nc3cnc(N4CCOCC4)nc32)cc1 | inactive: 8.94%
CN1CCN(c2ccnc(-c3ccccc3C(F)(F)F)n2)CC1 | inactive: 19.2%
CN(C)c1ncc2nc(-c3ccc(F)cc3)c(=O)n(CCC#N)c2n1 | inactive: 13.9%
CN1CCN(CC(=O)N2c3ccccc3C(=O)Nc3cccnc32)CC1 | inactive
CC(C)NC(=O)[C@@H]1C[C@@H](Sc2nc3ccccc3[nH]2)CN1C1Cc2ccccc2C1 | inactive: -12.8%
N#CCCn1c(=O)c(-c2cc(F)cc(F)c2)nc2cnc(Nc3ccccc3)nc21 | inactive: 18.9%
Cn1cc[nH]c1=S | inactive
Cc1nc2ccc(C(=O)NCC3CCC4(CCN(Cc5cccnc5)CC4)O3)cc2nc1C (stereo not given) | inactive: 15.3%
Cc1nc2cnc(N(C)C)nc2n(Cc2ccc(F)cc2)c1=O | inactive: 10.7%
O=C1[C@H](Cc2ccccc2)NCCCC[C@@H](c2ccc(Cl)cc2)N1Cc1ccc(Cl)cc1 | inactive: -7.93%
NC(Cn1ccc(=O)c(O)c1)C(=O)O (stereo not given) | inactive: 8.31%
CNCCc1cnc(CCC(c2ccccc2)c2ccccc2)[nH]1 | inactive: 3.33% [at 75.8 µM]
CC[C@](N)(CCC(=O)O)C(=O)O | inactive
CC(=O)OC1CC(O)C(C)(C)C2CC(OC(C)=O)[C@]3(C)C(CC[C@@]4(C)C(c5ccoc5)OC(=O)C5OC534)[C@]12C (stereo not given in full) | inactive: 17.5%

SMILES | activity change, negative = inhibition
CN1CCN(c2ncc3nc(-c4cc(F)cc(F)c4)c(=O)n(C)c3n2)CC1 | inactive: 22.6%
CS(=O)(=O)Nc1cccc(-c2nccc(NCc3ccccc3)n2)c1 | inactive: 7.97%
COC1=C(OC)C(=O)C(CC=C(C)CCC=C(C)CCC=C(C)CCC=C(C)CCC=C(C)CCC=C(C)CCC=C(C)CCC=C(C)CCC=C(C)CCC=C(C)C)=C(C)C1=O | inactive: 29.8%
CC(C)NCC(O)COc1ccc(CC(N)=O)cc1 (stereo not given) | inactive
COCc1ccc(C(=O)N2CCOc3c(cc(-c4cc(C)c5cccc(OC)c5n4)cc3OC)C2)o1 | inactive: 3.58%
COc1cccc(Cn2c(=O)c(-c3cccs3)nc3cnc(N4CCOCC4)nc32)c1 | inactive: -1.5%
CC(C)C[C@H](NC(=O)[C@@H](COC(C)(C)C)NC(=O)[C@H](Cc1ccc(O)cc1)NC(=O)[C@H](CO)NC(=O)[C@H](Cc1c[nH]c2ccccc12)NC(=O)[C@H](Cc1cnc[nH]1)NC(=O)[C@@H]1CCC(=O)N1)C(=O)N[C@@H](CCCN=C(N)N)C(=O)N1CCC[C@H]1C(=O)NNC(N)=O | inactive
COC(=O)[C@@H]1CCCN1C(=O)c1c(OC)cc(=O)n2c1CCN(Cc1ccc3c(c1)OCCO3)CC2 | inactive: 1.1%
Cc1c(C(=O)NC(C)(C)CO)sc2ncnc(NCCN(C)C)c12 | inactive: 9.74%
COc1ccc(OC)c(-c2cc(Cl)c3c(c2)CC(CNC(=O)c2cccnc2SC)O3)c1 (stereo not given) | inactive: -7.16%
Cc1cccc(C(=O)N[C@H]2CC[C@@H](n3cc(C(=O)N4CCCC4)nn3)CC2)c1 | inactive: 1.56%
CC1=NS(=O)(=O)c2cc(Cl)ccc2N1 | inactive
COc1ccc(Oc2ncc3nc(-c4ccc(Cl)cc4)c(=O)n(C[C@H]4CCCO4)c3n2)cc1 | inactive: -4.75%
N#CCCn1c(=O)c(-c2cccs2)nc2cnc(Oc3ccccc3)nc21 | inactive: 9.84%
CN1N=C(C(=O)N2CCOc3ccc(CN4CCCC(C(=O)c5cccnc5)C4)cc3C2)CCC1=O (stereo not given) | inactive: 10.3%
COc1cccc(-c2cc(NCc3cnc(C)cn3)ncn2)c1 | inactive: -2.13%
Cc1cccc(CN2Cc3cccc4c3[C@H](C=CC4)CC2=S)c1 | inactive: 0.327%
NC(=O)c1ccc[n+]([C@@H]2OC(COP(=O)([O-])OP(=O)(O)OCC3OC(n4cnc5c(N)ncnc54)C(O)C3O)C(O)C2O)c1 (stereo not given in full) | inactive: 8.29%
COc1cc2ncnc(Nc3cccc(Br)c3)c2cc1OC | inactive: 0.988%
CN(C)CCC(c1ccc(Br)cc1)c1ccccn1 (stereo not given) | inactive
CCCCNC(=O)[C@@H]1CC=C[C@@H]2CCN(Cc3ccc(OC)c(OC)c3)C(=O)[C@@H]21 | inactive: -0.608%
Cc1ccnc2ncccc12 | inactive: 6.65%
O=C1CC[C@@H](C(=O)N2CSC[C@H]2C(=O)O)N1 ([pGlu]-[Thz]-OH) | inactive: 3.7%
COc1ccccc1N1CCN(CCCNc2c(C)c(=O)n(C)c(=O)n2C)CC1 | inactive

SMILES | activity change, negative = inhibition
c1ccc(-c2ccc(C(c3ccccc3)n3ccnc3)cc2)cc1 (stereo not given) | inactive: -11.3%
Cc1ccc(S(=O)(=O)NCc2ccccc2)cc1 | inactive: -1.88%
O=C(O)/C=C/C(O)c1ccc(Cl)cc1 (stereo not given) | inactive
C[C@]12CCC(=O)C=C1CC[C@@H]1[C@@H]2CC[C@@]2(C)[C@H]1CC[C@]2(O)C(=O)CO | inactive
c1ccc(C(c2ccccc2)N2CCCC3(CCNCC3)C2)cc1 | inactive: 16.4%
COC(=O)C1=C(C)NC(C)=C(C(=O)OC(C)(C)CN(C)CCC(c2ccccc2)c2ccccc2)C1c1cccc([N+](=O)[O-])c1 (stereo not given) | inactive
CC(C)Cc1nc2cc(NS(=O)(=O)N(C)C)cc(C(=O)N3CCN(c4ccccc4)CC3)c2n1C | inactive: -4.51%
COc1cc(/C=C/C(=O)/C=C(O)/C=C/c2ccc(O)c(OC)c2)ccc1O | inactive
Nc1nc2c(ncn2C2OC(COC(=O)c3ccccc3)C(OC(=O)c3ccccc3)C2OC(=O)c2ccccc2)c(=O)[nH]1 (stereo not given) | inactive: -9.68%
Cc1cccc2c(Nc3ccc4c(c3)OCO4)nc(CN3CCC(N4CCCCC4)CC3)nc12 | inactive: -3.48%
COc1ccc(-n2c(=O)c(-c3ccccc3)nc3cncnc32)cc1 | inactive: 10.3%
CN1CC(O)C(O)C(O)C1CO (stereo not given) | inactive: 6.51% [at 75.8 µM]
COc1cccc(OC)c1CN1CCC2(CCC(CNC(=O)c3ccn(C)n3)O2)CC1 (stereo not given) | inactive: 5.38%
CC(=O)N[C@H](C(=O)O)C(C)(C)SN=O | inactive: -0.498% [at 75.8 µM]
N#Cc1ccc2c(c1)N(CCCN1CCC(O)CC1)c1ccccc1S2 | inactive: 19%
Cn1c(=O)c(CCc2ccccc2)nc2cnc(Nc3ccccc3)nc21 | inactive: 14.9%
CCC1(c2ccccc2)C(=O)NCNC1=O | inactive
Cc1oc(-c2ccccc2NC(=O)C2CCC2)nc1CNC(=O)c1c(F)ccc(F)c1F | inactive: 8.49%
COc1cc([C@@H]2c3cc4c(cc3[C@@H](O[C@@H]3O[C@H]5CO[C@@H](C)O[C@@H]5[C@@H](O)[C@H]3O)[C@@H]3COC(=O)[C@@H]23)OCO4)cc(OC)c1O | inactive: 4.04%
COc1cc(CN2c3ccc(Br)cc3C(=O)CS2(=O)=O)cc(OC)c1 | inactive: 11.2%
COc1cccc(Cn2c(=O)c(-c3ccc(Cl)cc3)nc3cncnc32)c1 | inactive: 6.41%
O=[N+]([O-])c1ccc(CSc2ncnc3c2ncn3C2OC(CO)C(O)C2O)cc1 (stereo not given) | inactive: 19.3%
Clc1ccc(-n2cccc2CN2CCOc3ccc(CN4CCOCC4)cc3C2)nc1 | inactive: 12.8%
